Measurements from PubChem BioAssay AID624417 (National Center for Advancing Translational Sciences (NCATS), 2012).
About 6,400 (1.6%) of roughly 410,000 compounds were called active. The shares of active, inactive and inconclusive entries below differ from those in the screen. Calls come from the whole dose curve; as a rule, active = well fitted inhibition curve with a large enough effect; inconclusive = small, poorly fitted or top-dose-only effect; inactive = no such curve, though single readings can be large or run the other way. Potencies of inconclusive entries are left out as doubtful fits.

Biological target: Glucagon-like peptide 1 receptor (Homo sapiens) (UniProt P43220)
Test: qHTS of GLP-1 Receptor Inverse Agonists (Inhibition Mode); note: nearly all actives have a fitted effect of over 55% in size
Details: HEK293 GLP-1R CRE-luciferase, luminescence, 24 h, GLP-1R form is constitutively active; activity change, negative = inhibition: at 38.3 µM (top of the series) unless noted
Summary of the method: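 Assay principle: reduced luminescence from a cAMP-responsive reporter in HEK293 cells co-expressing a constitutively active GLP-1R. Conditions: 24 hr compound incubation, 37 deg C, 5% CO2.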
% is set by controls: 0 for no effect and ±100 for the full control effect; potency is the fitted concentration of half-maximal effect; tags give direction and shape of the fitted curve.

Sequence of UniProt P43220 (P43220 whole entry, looked up): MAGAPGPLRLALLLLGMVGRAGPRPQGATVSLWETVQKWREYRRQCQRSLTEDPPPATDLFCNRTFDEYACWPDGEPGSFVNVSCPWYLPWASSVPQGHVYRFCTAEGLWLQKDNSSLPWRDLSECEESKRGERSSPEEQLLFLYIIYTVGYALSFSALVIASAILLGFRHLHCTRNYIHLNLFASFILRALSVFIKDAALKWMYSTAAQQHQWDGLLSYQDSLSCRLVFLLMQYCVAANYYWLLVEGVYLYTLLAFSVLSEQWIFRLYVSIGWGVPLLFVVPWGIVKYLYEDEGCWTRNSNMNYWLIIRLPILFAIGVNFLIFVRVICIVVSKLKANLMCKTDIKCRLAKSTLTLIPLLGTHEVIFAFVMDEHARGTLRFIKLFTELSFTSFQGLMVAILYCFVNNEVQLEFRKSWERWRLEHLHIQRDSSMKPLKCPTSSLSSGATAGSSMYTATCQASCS

| Compound | activity change, negative = inhibition | Potency |
| --- | --- | --- |
| CSc1nc2c(c(=O)[nH]1)C(c1cccs1)C1=C(CCCC1=O)N2 (stereo unspecified) | inactive: -2.18% |  |
| CCOCCCn1c(=N)c(C(N)=S)cc2c(=O)n3cccc(C)c3nc21 | inactive: 0% |  |
| Cc1ccc(CN2CC(N3CCC(Cc4ccccc4)CC3)CS2(=O)=O)cc1 (stereo unspecified) |  | inconclusive [inhibitor, single point] |
| CC(=O)Cn1cnc2scc(-c3ccc(C)c(C)c3)c2c1=O |  | inconclusive [inhibitor, single point] |
| CON(C)C(=O)CC1(CN(Cc2ccccc2)C(=O)OC(C)(C)C)CCCCC1 |  | inconclusive [inhibitor, partial curve, poor fit] |
| CCOC(=O)c1cc(C(C)(C)C)oc1CNC(=O)c1c(C)oc2c1CCCC2 |  | inconclusive [inhibitor, partial curve, poor fit] |
| Fc1ccc(Nc2cncc(-c3ccsc3)c2)cc1Cl | inactive: 13% |  |
| CCOC(=O)c1cc(CC)sc1NC(=O)C1CC(=O)NN1Cc1ccccc1 (stereo unspecified) |  | inconclusive [inhibitor, single point] |
| Cc1ccsc1CN1CC(=O)N(c2c(C)cccc2C)C1=S |  | inconclusive [inhibitor, partial curve, poor fit] |
| COc1ccccc1N(CC(=O)NCCSCc1ccccc1)S(=O)(=O)c1ccccc1 |  | inconclusive [inhibitor, partial curve, poor fit] |
| O=C(O)/C=C/C(=O)c1ccc2c(c1)CCc1ccccc1-2 |  | inconclusive [inhibitor, partial curve, poor fit] |
| COc1ccc(N2CCC(CNC(=O)Nc3cccc(OC)c3)C2)cc1 (stereo unspecified) | inactive: 0% |  |
| COc1ccc(-c2cn3nc(N4CCCC(C(=O)NCc5ccccc5OC)C4)sc3n2)cc1 (stereo unspecified) | inactive: 9.61% |  |
| CCC(CC)COC(=O)C1=C(C)NC(=O)NC1c1ccc(OC)cc1 (stereo unspecified) |  | inconclusive [inhibitor, partial curve, poor fit] |
| Cc1ccccc1C(c1ncccc1C)N(C)C(=O)C1CCN(CCOc2ccc(Cl)cc2Cl)CC1 (stereo unspecified) |  | inconclusive [inhibitor, partial curve, poor fit] |
| COc1cccc(/C=N/NC(=O)C(=O)Nc2ccccc2OC(F)(F)C(F)F)c1O |  | inconclusive [inhibitor, partial curve, poor fit] |
| Cc1cc(Br)cn2c(Cc3ccccc3)c(-c3cccc(Cl)c3)nc12 |  | inconclusive [inhibitor, full curve, poor fit] |
| CC(=O)Oc1c2occc2cc2ccc(=O)oc12 | inactive: 13.9% |  |
| O=C1c2cccc3cccc(c23)N1Cc1ccc(F)cc1 |  | inconclusive [inhibitor, partial curve, poor fit] |
| CC1CCN(S(=O)(=O)c2ccc(NC(=O)Cc3ccccc3)cc2)CC1 |  | inconclusive [inhibitor, partial curve, poor fit] |
| Cc1nn(-c2ccccc2)c(C)c1C(=O)OCC(=O)NC(=O)NC1CCCC1 |  | inconclusive [inhibitor, partial curve, poor fit] |

| Compound | activity change, negative = inhibition | Potency |
| --- | --- | --- |
| Cc1occc1C(=O)N/N=C/C=C\c1ccccc1[N+](=O)[O-] | inactive: 6.17% [at 7.66 µM] |  |
| CN(/C(=N/S(=O)(=O)c1cccs1)c1ccccc1)c1ccccc1 |  | inconclusive [inhibitor, partial curve, poor fit] |
| CCN1CCCc2cc(CN(CCN3CCOCC3)C(=S)Nc3cccc(Cl)c3)ccc21 |  | inconclusive [inhibitor, partial curve, poor fit] |
| Cc1ccc(-n2nc(CO)c(C(=O)NCCCc3ccccc3)n2)cc1 | inactive: -30.9% |  |
| C[C@@]12C(=O)Nc3ccc(Cl)cc3C(=O)N1[C@H]1c3cc(Cl)ccc3OC[C@@H]1[C@@H]2c1ccccc1 |  | inconclusive [inhibitor, partial curve, poor fit] |
| Clc1ccc(Oc2ccccc2)c2ncccc12 |  | inconclusive [inhibitor, partial curve, poor fit] |
| Cc1cccc([N+](=O)[O-])c1NC(=O)CN(Cc1ccccc1)Cc1ccccc1 |  | inconclusive [inhibitor, partial curve, poor fit] |
| O=C(/C=C/c1ccc2c(c1)OCO2)c1ccc[nH]1 | inactive: 25.8% |  |
| CCc1nc2ccc(C)cc2c(C(=O)NC2CCCCC2C)c1C (stereo unspecified) |  | inconclusive [inhibitor, single point] |
| O=C(COC(=O)c1n[nH]c2ccccc12)Nc1ccc(S(=O)(=O)N2CCCC2)cc1 | inactive: -9.24% |  |
| CC1CCCCN1CC(=O)Nc1sc2c(c1C#N)CCC2 (stereo unspecified) |  | inconclusive [inhibitor, partial curve, poor fit] |
| CC(OC(=O)c1ccc2ccccc2c1)C(=O)N(C)Cc1ccccc1 (stereo unspecified) |  | inconclusive [inhibitor, partial curve, poor fit] |
| COc1ccc2oc(C(=O)N3CCc4ccccc43)c(C)c2c1 |  | inconclusive [inhibitor, partial curve, poor fit] |
| COc1ccc(-n2c(=O)c3ccccc3n(Cc3ccccc3C)c2=O)c(OC)c1 | inactive: -25.1% |  |
| COc1ccc(N2CCN(C(=O)CCC(=O)N3CC(C)Oc4ccccc43)CC2)cc1 (stereo unspecified) |  | inconclusive [inhibitor, partial curve] |
| Clc1ccc(CN2CCN(c3ncccn3)CC2)cc1Cl |  | inconclusive [inhibitor, partial curve, poor fit] |
| Cc1ccc(OP(=O)(Nc2c(C)n(C)n(-c3ccccc3)c2=O)Oc2ccc(C)cc2)cc1 |  | inconclusive [inhibitor, single point] |
| Cc1cc(C(=O)CSc2nnc(-c3ccco3)o2)c(C)n1CC1COc2ccccc2O1 (stereo unspecified) |  | inconclusive [inhibitor, partial curve, poor fit] |
| O=C(NNC(=S)NCCc1ccccc1)c1ccc(Br)s1 |  | inconclusive [inhibitor, single point] |
| Cc1cccc(OCCOC(=O)c2c(-c3ccccc3)noc2C)c1 |  | inconclusive [inhibitor, partial curve] |
